Screen size: about 420,000 compounds; about 50,000 (12%) were called active. This list was built around the results that the source calls inconclusive (neither active nor inactive); the mix of calls is not that of the screen. The call rests on the fitted dose curve; in most records, active means well fitted inhibition curve with a large enough effect; inconclusive means small, poorly fitted or top-dose-only effect; inactive means flat fitted curve, though single readings scatter. No potency is given beside an inconclusive call; the fits are too rough.
Experiment: qHTS for Inhibitors of human tyrosyl-DNA phosphodiesterase 1 (TDP1): qHTS in cells in presence of CPT; further: nearly all actives have a fitted effect of over 55% in size
Conditions: chicken DT40 Tdp1-/-;hTDP1 cells + 20 nM CPT, ATP luminescence, 48 h; activity change, negative = growth inhibition: at 46.2 µM (top of the series) unless noted
In short: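 Chicken DT40 Tdp1-/- cells stably complemented with human TDP1 were seeded at 400 cells/well in medium containing 20 nM camptothecin, exposed to pin-transferred compounds, and grown at 37 °C for at least 48 hr. Viability was read as ATP luminescence.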
On the % scale 0 is the no-effect control and ±100 the full control effect; potency means the concentration at half of the fitted maximal effect; tags describe the fitted curve by direction and shape.

**Q.** For COc1cccc(CC(=O)Nc2ncc(C)s2)c1, which Potency is on record?
**A.** The Potency was active: 8.2 µM.

**Q.** With CC1CCN(C(=O)CSc2nnc(-c3ccccc3Cl)o2)CC1 as the molecule, how does the Potency read?
**A.** The Potency was inconclusive [inhibitor, single point].

**Q.** Which Potency does the source give for O=C(CNC(=O)c1cc(Cl)cc([N+](=O)[O-])c1)OCC(=O)N1CCCCC1 here?
**A.** Its Potency is “inactive”.

**Q.** With O=C1c2nccnc2C(=O)N1c1ccc(F)cc1 as the molecule, how does the Potency read?
**A.** Its Potency is “inactive”.

**Q.** Which Potency does the source give for CCOC(=O)C1=C[C@@H](C(C)C)N(S(=O)(=O)c2ccc(C)cc2)[C@H]1c1ccccc1F here?
**A.** Its Potency is inconclusive [inhibitor, single point].

**Q.** With CC1=C(C(=O)NC2CCCc3c2cnn3-c2cccc(C)c2C)OCCO1 (centres undefined) as the molecule, how does the Potency read?
**A.** Its Potency is active: 20.6 µM.

**Q.** With COc1ccc(-c2nnc(C3CCN(C(=O)c4ccccc4F)CC3)o2)cc1 as the molecule, how does the Potency read?
**A.** The Potency was active: 5.17 µM.

**Q.** With CCC(Cc1ccccc1)NC(=O)c1ccc2nc(N3CCOCC3)sc2c1 (centres undefined) as the molecule, how does the Potency read?
**A.** Its Potency is active: 14.6 µM.

**Q.** With CC1=C(C(=O)OCc2ccc3c(c2)OCO3)C(c2ccccc2OCc2ccccc2)NC(=O)N1 (centres undefined) as the molecule, how does the Potency read?
**A.** Its Potency is inconclusive [inhibitor, single point].

**Q.** Which Potency does the source give for COC(=O)CCCCCN1C(=O)NC(c2ccc(-c3ccccc3)cc2)C(C(=O)OCc2ccccc2)=C1C (centres undefined) here?
**A.** The Potency was inconclusive [inhibitor, single point].

**Q.** Which Potency does the source give for COc1ccc(C2/C=C\CN(C(=O)NC34CC5CC(CC(C5)C3)C4)CC(=O)N2Cc2ccc(F)cc2)cc1 (centres undefined) here?
**A.** Its Potency is active: 23.1 µM.

**Q.** For COc1ccc(C(O)c2nc(-c3ccccc3)cs2)cc1 (centres undefined), which Potency is on record?
**A.** The Potency was active: 13 µM.

**Q.** For Nc1[nH]ncc1-c1ccccc1, which activity change, negative = growth inhibition is on record?
**A.** The activity change, negative = growth inhibition was inconclusive: -16.4% [inhibitor].

**Q.** Which Potency does the source give for COc1ccc(-c2onc(C)c2C)cc1S(=O)(=O)N1c2ccccc2CC1C (centres undefined) here?
**A.** The Potency was active: 23.1 µM.

**Q.** Which Potency does the source give for Cc1csc(Nc2nc(N)c(C(=O)Nc3ccccc3)o2)n1 here?
**A.** Its Potency is “inactive”.

**Q.** With CC[N+](C)(CC)CC(=O)OCC1C(C)C=C(C)CC1C (centres undefined) as the molecule, how does the Potency read?
**A.** Its Potency is inconclusive [inhibitor, single point].

**Q.** With COc1ccc(C(=O)CSc2nc(C)cc(C)n2)cc1C as the molecule, how does the Potency read?
**A.** Its Potency is inconclusive [inhibitor, single point].

**Q.** For CC1(Cc2ccc(Cl)cc2)C(=O)Nc2c(Cl)cccc21 (centres undefined), which Potency is on record?
**A.** Its Potency is “inactive”.

**Q.** For Cc1cc(C)n2nc(SCc3ncc(-c4ccccc4)o3)nc2n1, which Potency is on record?
**A.** The Potency was inconclusive [inhibitor, single point].

**Q.** Which Potency does the source give for NC(=O)C(CCCCN1CCCCC1)(c1ccccc1)c1ccccc1 here?
**A.** Its Potency is inconclusive [inhibitor, single point].

**Q.** Which Potency does the source give for Cc1ccc(N2CC(C(=O)N3CCC(C(=O)Nc4nnc(C(C)(C)C)s4)CC3)CC2=O)cc1 (centres undefined) here?
**A.** Its Potency is “inactive”.

**Q.** For Cc1ccc2nc(-c3cc(NC(=O)c4ccc5c(c4)OCCO5)ccc3Cl)oc2c1, which Potency is on record?
**A.** Its Potency is inconclusive [inhibitor, single point].

**Q.** For COc1ccc(NC(=O)Cn2c(=O)sc3ccccc32)c(OC)c1, which Potency is on record?
**A.** The Potency was “inactive”.

**Q.** With Cc1cc(C)n(-c2ccc(C(=O)OCC(=O)c3ccc(Br)s3)cc2)n1 as the molecule, how does the Potency read?
**A.** Its Potency is “inactive”.

**Q.** For C=CCOc1ccc(CN(C)CC(=O)Nc2ccc3c(c2)CCC3)cc1, which Potency is on record?
**A.** The Potency was active: 23.1 µM.

**Q.** With COc1ccc(CNC(=O)/C(C#N)=C2\N=C(NC(=O)c3cccs3)c3ccccc32)cc1 as the molecule, how does the Potency read?
**A.** The Potency was active: 25.9 µM.

**Q.** For COc1ccc(C2Sc3ccccc3NC3=C2C(=O)c2ccccc23)c(OC)c1OC (centres undefined), which Potency is on record?
**A.** Its Potency is active: 1.84 µM.

**Q.** With COc1cccc2c1CCc1c-2nc2ccccc2c1C(=O)O as the molecule, how does the Potency read?
**A.** Its Potency is “inactive”.

**Q.** Which Potency does the source give for CCC(CC)c1nc(C(N)=O)c2[nH]c(=O)n(-c3ccc(OC)c(OC)c3)c2n1 here?
**A.** The Potency was “inactive”.

**Q.** Which Potency does the source give for CC(C)Nc1nc(NCCOc2ccccc2Cl)c2sccc2n1 here?
**A.** Its Potency is active: 18.4 µM.

**Q.** For CCOC(=O)Cn1cnc2c(nnn2-c2ccc(F)cc2)c1=O, which Potency is on record?
**A.** The Potency was “inactive”.

**Q.** Which Potency does the source give for Cc1cccc(CN2CCC(C(=O)Nc3cccc(-c4cccc(F)c4)c3)CC2)n1 here?
**A.** Its Potency is active: 8.2 µM.

**Q.** For CCS(=O)(=O)Nc1ccc(-c2nnc(SCC(=O)c3ccc(NC(C)=O)c(OC)c3)o2)cc1, which Potency is on record?
**A.** Its Potency is inconclusive [inhibitor, partial curve, poor fit].

**Q.** For CN(C)S(=O)(=O)c1ccc(SCC(=O)Nc2cccc(S(=O)(=O)N3CCCC3)c2)nc1, which Potency is on record?
**A.** Its Potency is “inactive”.

**Q.** For Cc1noc(/C=C/c2ccco2)c1S(=O)(=O)N1CCC(C(=O)N2CCc3ccccc32)CC1, which Potency is on record?
**A.** The Potency was inconclusive [inhibitor, single point].

**Q.** For Cc1ccc2[nH]c3c(=O)n(CC(=O)N4CCN(C)CC4)ncc3c2c1, which Potency is on record?
**A.** Its Potency is “inactive”.

**Q.** With Cc1cc(C)c(NC(=O)C2C(=O)Nc3ccccc3C(=O)N2C(C)(C)C)c(C)c1 (centres undefined) as the molecule, how does the Potency read?
**A.** The Potency was “inactive”.

**Q.** For COCC1CCN(C(=O)c2cc(COc3ccccc3SC)on2)C1 (centres undefined), which Potency is on record?
**A.** The Potency was inconclusive [inhibitor, single point].

**Q.** With COc1ccc(-n2c(C)cc(C(=O)COc3ccc(C)nc3[N+](=O)[O-])c2C)cc1 as the molecule, how does the Potency read?
**A.** Its Potency is active: 5.17 µM.

**Q.** For COC/C=C/C1=CC(=O)C[C@H](c2ccc3c(c2)OCO3)C1, which Potency is on record?
**A.** The Potency was inconclusive [inhibitor, single point].

**Q.** With CN(C)c1ccc(/C=C/c2ccnc3c([N+](=O)[O-])cccc23)cc1 as the molecule, how does the Potency read?
**A.** The Potency was inconclusive [inhibitor, full curve, poor fit].

**Q.** Which Potency does the source give for CCOc1ccc(C(CC(=O)O)N2Cc3ccccc3C2=O)cc1OC (centres undefined) here?
**A.** The Potency was “inactive”.

**Q.** With CN(C)c1ccc(/C=C2\C=Nc3ccccc32)cc1 as the molecule, how does the Potency read?
**A.** The Potency was inconclusive [inhibitor, single point].

**Q.** Which Potency does the source give for COc1ccc(CNC(=O)c2ccc(S(=O)(=O)NCc3ccco3)cc2)cc1 here?
**A.** Its Potency is inconclusive [inhibitor, single point].

**Q.** For CCN(CC)S(=O)(=O)c1ccc(NS(=O)(=O)CC23CCC(CC2=O)C3(C)C)cc1 (centres undefined), which Potency is on record?
**A.** Its Potency is inconclusive [inhibitor, single point].

**Q.** For O=C(Nc1ccc(N2CCCC2=O)cc1)c1cccc(F)c1, which Potency is on record?
**A.** Its Potency is inconclusive [inhibitor, partial curve].

**Q.** With CN(C)c1ccc(C(=O)/C=C/c2cccnc2)cc1 as the molecule, how does the Potency read?
**A.** Its Potency is inconclusive [inhibitor, single point].

**Q.** Which Potency does the source give for CCOC(=O)N(C)c1c(CC)nc2c(OCc3ccccc3OC)cccn12 here?
**A.** Its Potency is active: 20.6 µM.

**Q.** For CC(=O)c1cccc(Nc2cc(C)nc3c(C)cccc23)c1, which Potency is on record?
**A.** The Potency was “inactive”.
